Data from article PMC10564622 (Free Radical Biology & Medicine, 2023).

B1: AF488-labeled CUL3NTD (domain or fragment)
chain: not shown
modifications: AF488 by direct acylation with AF488-Tfp (sites not given)
notes: human CUL3, Uniprot […], […], vector pNIC-CTHF, with stabilising mutations I342R and L346D; also called AF488-CUL3NTD; source: E. coli BL21(DE3)-pRARE2, purified (nickel sepharose, TEV cleavage, SEC), labeled with AF488-Tfp; not shown: His6, C-terminal, cleaved; FLAG, C-terminal, cleaved
B2: CUL3NTD (CUL3 N-terminal domain, […], I342R L346D) (domain or fragment)
chain: not shown
notes: human CUL3, Uniprot […], […], vector pNIC-CTHF, with stabilising mutations I342R and L346D (split-n-express); source: E. coli BL21(DE3)-pRARE2, purified (nickel sepharose, TEV cleavage, SEC); not shown: His6, C-terminal, cleaved; FLAG, C-terminal, cleaved

Columns and labels:
Conditions in all cases: both partners purified
[1] = target: T1, CoraFluor-1-labeled KEAP1FL (full-length, untagged KEAP1, residues 1–624) (human, UniProt Q14145, CoraFluor-1 by direct acylation with CoraFluor-1-Pfp (sites not given)); test: FRET or BRET; TR-FRET saturation binding: AF488-labeled CUL3NTD titrated (cmax 1000 nM) onto CoraFluor-1-labeled KEAP1 or KLHL11; 25 mM HEPES, 150 mM NaCl, 1 mM DTT, 0.5 mg/mL BSA, 0.005% TWEEN-20, pH 7.5; 2 h, room temperature; One Site – Total Binding model
[2] = target: T1, CoraFluor-1-labeled KEAP1FL …; test: FRET or BRET; TR-FRET saturation binding of AF488-labeled CUL3NTD to CoraFluor-1-labeled KEAP1FL in the presence of 1 or 10 μM CDDO
[3] = target: T2, KEAP1_(BTB-BACK-Kelch) (KEAP1 residues 48–624) (human, UniProt Q14145); test: FRET or BRET; TR-FRET protein displacement assay: CoraFluor-1-labeled KLHL11_(BTB-BACK) + AF488-labeled CUL3NTD, unlabeled protein titrated (cmax 25 μM); assay buffer pH 7.5, 2 h, room temperature; KD from IC50 by Cheng-Prusoff
[4] = target: T1, CoraFluor-1-labeled KEAP1FL …; test: FRET or BRET; TR-FRET dissociation: pre-equilibrated 20 nM CoraFluor-1-KEAP1 + 300 nM AF488-CUL3NTD, or 2 nM CoraFluor-1-KLHL11 + 45 nM AF488-CUL3NTD; 25 μM unlabeled KLHL11 added, read for 30 min; one-phase decay
[5] = target: T2, KEAP1_(BTB-BACK-Kelch) (KEAP1 residues …); test: FRET or BRET; TR-FRET protein displacement assay: CoraFluor-1-labeled KEAP1FL + AF488-labeled CUL3NTD, unlabeled protein titrated (cmax 25 μM); assay buffer pH 7.5, 2 h, room temperature; KD from IC50 by Cheng-Prusoff
[6] = target: T1, CoraFluor-1-labeled KEAP1FL …; test: as above

Binder	Kd [1] [nM]	fold decrease of affinity with CDDO against no CDDO [2] [fold]	Kd [3] [nM]	koff [4] [s⁻¹]	Kd [5] [nM]	Kd [6] [nM]
B1	222	> 2	798	0.00504	396	–
B2	–	–	–	–	–	129
